Laboratory results taken from ChEMBL document CHEMBL4888484, “Replenishing the malaria drug discovery pipeline: Screening and hit evaluation of the MMV Hit Generation Library 1 (HGL1) against asexual blood stage Plasmodium falciparum ,using a nano luciferase reporter read-out” (2022).
Among all 150,000 compounds or so, about 540 (0.36%) showed an effect of 50% or more. The list shows a part of the results.

These compounds were tested on Plasmodium falciparum (assay: Primary screen in NF54 nanoGlo assay, in single point, at 2uM, 72h; a lower Z score goes with more inhibition). Conditions: timepoint 72 hour.
Assay type: functional, Erythrocyte

Structure (SMILES)	% Inhibition [%]	Z score
C[C@@H]1Oc2ccc(NC(=O)CCc3ncc(-c4ccc(Cl)cc4Cl)o3)cc2NC1=O	9	-1.48
COC1CN(C(=O)OC(C)(C)C)CC1NC(=O)c1ccc(F)cc1Cl (stereo not drawn)	1	-0.16
CCOc1ccc(CN2CCN(C(=O)c3ccc(C)nc3)CC2)cn1	13	-1.61
Cc1cc(C)n2ncc(-c3noc(C(=O)NC4CCCCCC4)n3)c2n1	-14	1.63
COc1ncncc1NC(=O)NC1CCC(C)C1 (stereo not drawn)	-14	1.4
COC(=O)c1ncn(CNC2(c3ccc(Cl)cc3)CCCC2)n1	35	-4.76
O=C1Nc2ccc(-c3ccc4c(c3)OCO4)cc2C(=O)N2C[C@@H](NS(=O)(=O)c3ccc(F)cc3)C[C@@H]12	29	-3.28
COc1ccc(C[C@H]2CCOC3(CCN(C(=O)c4ccc(OC)c(F)c4)CC3)C2)cc1	-3	0.6
CCOc1ccccc1CNC(=O)c1cc(N2CCc3cc(OC)c(OC)cc3C2)nc2ccccc12	-2	0.25
O=C1CCCCN1CC(=O)N1CCO[C@@H](Cc2cccc3ccccc23)C1	-5	0.71
CC(C)(C)CN(C(=O)[C@H]1CCCN(C(=O)C(C)(C)C)C1)c1ccc(F)cc1	32	-3.66
Cc1cc(CS(=O)(=O)c2ccccc2Br)on1	-4	0.76
O=c1[nH]c(Nc2ccccc2)nc2nccc(-c3ccc(Br)cc3)c12	7	-0.94
O=C1CCN(C(=O)c2cn(C(c3ccccc3)c3ccccc3)nn2)CCN1	-3	0.35
CCN(CCOc1c(C)cccc1C)Cc1cc(C)n[nH]1	-10	1.43
COc1ccc(-c2cccc(-n3cncc3C(=O)NCc3c(-c4ccccc4)noc3C)c2)cc1OC	11	-1.71
O=C(O)C1CC2CCCCC2N1S(=O)(=O)Cc1ccccc1Cl (stereo not drawn)	14	-1.81
CS(=O)(=O)C[C@H]1CCCN(Cc2cccnc2N)C1	3	-0.4
Cc1ccc(OCCCN(C)C(=O)C2CCNCC2)cc1C	-8	1.21
O=C(CC[C@H]1CCCN(c2cc(NC3CC3)ncn2)C1)NCc1ccc(N2CCOCC2)cc1	-1	0.23
CS(=O)(=O)NCCOc1cccc(F)c1	-10	1.47

Structure (SMILES)	% Inhibition [%]	Z score
CC(C)COC1CCN(C(=O)CN2CCCCCC2=O)CC1	-5	0.68
CC(C)CN(Cc1cnc(N(C)CC(=O)O)nc1)C1CC1	-2	0.3
CC(=O)OCCc1sc(N)nc1C	-3	0.47
CC[C@](C)(NS(=O)(=O)c1ccc(C#N)cc1)C(=O)OC	-45	5.28
CCN(C(=O)c1ccc2ncoc2c1)[C@@H](C)C(F)(F)F	1	-0.1
CCCc1nc(N2CCC(N(C)CCN(C)C)CC2)no1	-2	0.24
CCNC(=O)Cc1ccc(C[C@@H]2CC[C@H](CN3CCCC3)O2)cc1	-7	1.4
CN(C)CCn1ccc(NC(=O)N2CCC[C@@H]2Cc2ccc(F)cc2)n1	15	-1.98
Cc1ncncc1C(=O)N1CCC[C@H](c2nccn2Cc2ccccc2)C1	-3	0.57
CC(=O)N1CCC(Cn2cnc3ccccc32)CC1	-1	0.07
CC1=C[C@@H](CNC(=O)c2cnccn2)[C@H](C(C)C)C[C@H]1Cc1nc2ccncc2[nH]1	5	-0.7
Brc1c[nH]c(-c2nc(-c3cnccn3)no2)c1	-1	0.25
CCOC(=O)C1=CS/C(=C2/C(=S)C(C)(C)Nc3ccc(C)cc32)S1	-19	2.07
C=CCNC(=O)C1(NC(=O)c2cc(C)n[nH]2)CCCCC1	-3	0.34
COc1cc2ccc1Oc1cccc(c1)CO[C@H]1CN(C(=O)c3n[nH]c4c3CCCC4)C[C@@H]1NC(=O)CN(C1CC1)C(=O)CC2	2	-0.28
COCCNc1ncc(Br)c(NCCOC)n1	-9	1.45
Cn1cc(S(=O)(=O)N2CCCC[C@@H]2CNC(=O)Nc2ccccc2)c(=O)n(C)c1=O	4	-0.6
O=C(Nc1ccccc1-c1cn2ccccc2n1)c1ncccn1	21	-2.71
COc1cccc(C(=O)NCC(=O)NC2(C)Cc3ccccc3C2)c1	25	-2.78
COCCN1[C@@H]2CCN(C(=O)CC3CCCCC3)C[C@@]2(C(=O)N2CCOCC2)CCS1(=O)=O	-17	2.49
CCCc1nc(CNC(=O)CCn2nnnc2C)cs1	-17	1.68

Structure (SMILES)	% Inhibition [%]	Z score
Cc1ccc(C2(CNC(=O)Cn3ncnn3)CCCC2)c(C)c1	-13	1.48
CC1CN(c2ccc(NC(=O)c3ccco3)cc2)CC(C)O1 (stereo not drawn)	-2	0.34
O=C(c1ccc(Cn2ccnc2)o1)N1C[C@H]2CNC(=O)[C@]23CCCC[C@@H]13	-11	1.75
O=C(NCc1cccc(=O)[nH]1)c1cc(-c2ccccc2)nc2ccccc12	-16	1.63
CN1CCCN(C(=O)CCc2nc3ccccc3c(=O)[nH]2)CC1	-3	0.38
O=C(Cn1nnc2ccccc21)N(c1ccccc1)C1CCCCC1	-13	1.77
CC(=O)Nc1cccc2c(C(=O)N3CCN(c4ccc(C)cc4)CC3)ccnc12	-17	3.18
COc1ccc(NC(=O)N2CCc3c(C(=O)NC4CC4)cccc32)cc1	-3	0.35
Nc1nc(NCc2ccc3c(c2)OCO3)cc(C2CC(O)C2)n1 (stereo not drawn)	-5	0.73
COc1ccc(C2(C(=O)N3CCc4cc(OC)c(OC)cc4C3C)CCCOC2)cc1OC (stereo not drawn)	-5	1.02
O=C(Cc1cnn(-c2ccccc2)c1)Nc1ccc2[nH]c(=O)[nH]c2c1	34	-0.93
CC(=O)NCC1CN(C(C)c2nc3ccccc3o2)CCO1 (stereo not drawn)	-14	1.9
COC(C)c1nc(CN2CCCC3CCCC32)cs1 (stereo not drawn)	-5	0.8
Cc1ccccc1C1(NS(=O)(=O)N2CCCC2)CC1	-3	0.61
CCN(CC)CCn1c2ccccc2n2cc(-c3ccc(OC)cc3)nc12	-9	1.35
COCc1nc(CN2CCO[C@H](c3ccc(Cl)cc3)C2)no1	-2	0.27
CN1C[C@@H](NC(=O)c2ccc(OCC3CC3)nc2)CCC1=O	13	-1.34
CCN1CC(C(=O)N2CCCC3CCCC32)CC1=O (stereo not drawn)	-6	0.65
Cc1cccc(COc2nc3cc(C)ccc3cc2CNCc2cn(C)nc2C)c1	7	-1.39
CCC(CC)n1nc(C)cc1C(=O)N1CCN(Cc2cccnc2)C[C@@H]1C	-2	0.28
O=C(c1ccc2[nH]c3c(c2c1)CCCC3)N1CCCCCC1	3	-0.4

Structure (SMILES)	% Inhibition [%]	Z score
CC(C)N(CC1CCC1)C(=O)NCc1cccc(O)c1	13	-1.79
Cc1c(-c2noc(C(=O)N3CCC(C)CC3)n2)oc2c(C)cccc12	-3	0.34
CO[C@H]1CCCC[C@@H]1NC(=O)NC1CCC(O)(c2cccnc2)CC1 (stereo partly drawn)	-10	1.64
CCc1ccc2occ(CC(=O)Nc3c(C(=O)c4ccccc4)oc4ccccc34)c2c1	7	-0.82
COC(=O)CN(Cc1ccc(F)c(F)c1)c1cc(C)ncn1	-7	0.98
Oc1ccc(N2CCN(Cc3noc(-c4cccs4)n3)CC2)cc1	-4	0.72
O=C1CC2(CCN(c3cc(C4CC4)ncn3)CC2)CN1Cc1ccccc1	-4	0.51
N#Cc1cccc(C(=O)N2CCc3n[nH]c(=O)n3CC2)c1	0	-0.03
CCOc1ccncc1S(=O)(=O)NC[C@H]1CCCN1C1CCCCC1	7	-1.22
Cn1nc(-c2ccc(F)cc2)cc1C(=O)Nc1ccc2c(c1)CN(S(=O)(=O)c1ccccc1)CC2	3	-0.54
Nc1nnc(CCNC(=O)c2ccccc2)s1	-6	0.76
Cc1ccc(NC(=O)Cn2c(C)cncc2=O)cc1C	-6	0.97
O=C(Nc1ccc(Cl)c(Cl)c1)OCc1cn(-c2ccccc2)nc1-c1cccs1	-6	1
Nc1nc(CCC(=O)N[C@H]2CCCc3ccccc32)cs1	-5	0.75
CC(=Cc1ccc(C)cc1)C(=O)N[C@@H](CO)C(F)(F)F	-11	1.59
CCC(NC(=O)c1cnc(C)nc1)[C@H]1C[C@H](O)C1 (stereo partly drawn)	-11	1.88
O=C(CCn1ccc2ccccc21)N1CCOCC1	-10	1.4
Cc1[nH]nc(C(N)=O)c1NC(=O)[C@H](C)NC(=O)CC1CCCCC1	-9	1.28
CN(C)CCN(CC(=O)OC(C)(C)C)C(=O)c1ccc(-n2ccc(C(F)(F)F)n2)cc1	-5	0.48
CC[C@]1(O)CCC12CCN(C(=O)CCc1ccc(OC)cc1)CC2	-10	1.25
COc1cccc(-c2noc(N3CCN(C(=O)c4ccco4)CC3)n2)c1	-22	1.97
